Test results taken from PubChem BioAssay AID1159614 (National Center for Advancing Translational Sciences (NCATS), 2016).
Hit rate of the full screen: of about 45,000 compounds, about 65 (0.1%) were called active. Calls follow the shape of the dose curve; as a rule, active = well fitted activation curve with a large enough effect; inconclusive = small, poorly fitted or top-dose-only effect; inactive = no such curve, though single readings can be large or run the other way. This is one part of the list.

molecular target: Galactocerebrosidase (Homo sapiens) (UniProt P54803); assay: A Novel Cell-Based Assay to Identify Small Molecules for B -Galactocerebrosidase; conditions: 145M-Twi-hGALC-G270D cells (Twitcher mouse brain line with human GALC G270D), HMU-beta-Gal fluorescence, 48 h; series mostly up to 57.5 µM; activation: at the top concentration; also: 0% is about no effect; nearly all actives have a fitted effect of over 65% in size
UniProt P54803, sequence (P54803 whole entry, looked up): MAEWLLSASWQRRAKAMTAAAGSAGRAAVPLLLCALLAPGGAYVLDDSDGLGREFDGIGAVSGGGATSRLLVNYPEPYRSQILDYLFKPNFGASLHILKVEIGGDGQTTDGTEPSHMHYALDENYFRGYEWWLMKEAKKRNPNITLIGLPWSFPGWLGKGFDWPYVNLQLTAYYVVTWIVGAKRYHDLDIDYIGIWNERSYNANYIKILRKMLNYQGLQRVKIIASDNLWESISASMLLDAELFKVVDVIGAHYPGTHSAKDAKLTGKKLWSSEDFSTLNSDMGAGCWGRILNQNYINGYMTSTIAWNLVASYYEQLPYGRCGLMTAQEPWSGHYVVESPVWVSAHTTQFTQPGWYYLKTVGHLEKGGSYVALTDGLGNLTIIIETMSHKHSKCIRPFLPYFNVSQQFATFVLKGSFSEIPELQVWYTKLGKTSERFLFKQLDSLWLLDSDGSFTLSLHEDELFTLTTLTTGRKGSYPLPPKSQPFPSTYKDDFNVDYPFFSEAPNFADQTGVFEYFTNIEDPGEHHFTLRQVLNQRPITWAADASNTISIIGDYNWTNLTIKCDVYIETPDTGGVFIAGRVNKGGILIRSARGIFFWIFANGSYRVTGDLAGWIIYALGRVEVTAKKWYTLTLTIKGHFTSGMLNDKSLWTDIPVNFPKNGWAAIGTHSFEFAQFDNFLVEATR
Method in brief: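 Fluorogenic HMU-b-Gal hydrolysis (0.1 mM final, pH 5.2 citrate-phosphate with 1 mg/mL sodium taurocholate; carbonate stop buffer) measures mutant GALC activity after compound treatment of live 145M-Twi Twitcher brain cells stably carrying human GALC-G270D, with wild-type GALC line alongside; activation sought.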

activation, inactive:
Cc1cc(C)cc(-n2c(SCC(=O)N3CCCC3)nc3c([nH]c4ccccc43)c2=O)c1 -21.4%, CCS(=O)(=O)N1CC(=O)N(c2ccc(Cl)cc2C)C(C)(C(=O)NC2CCCCCC2)C1 (stereo unspecified) 2.96%, CCc1nnc(SCc2cccc(F)c2)c2cc3sc(C)cc3n12 -15.9%, CCOc1ccc(N2CC(c3nc4ccccc4n3CCCOc3ccccc3OC)CC2=O)cc1 (stereo unspecified) -14.4%, COc1ccc(NC(=O)C2CCN(S(=O)(=O)c3ccc4[nH]c(=O)ccc4c3)CC2)cc1Cl -20%, O=C(CCCl)NCc1ccccc1 -11.9%, COc1cc(OC)c(NC(=O)C(c2ccccc2)N2Cc3ccccc3C2=O)cc1Cl (stereo unspecified) -6.32%, COc1ccc(N2CC(NC(=O)/C=C\c3ccc4c(c3)OCO4)CC2=O)cc1 (stereo unspecified) -0.88%, CC(C)CN(CCCNC(=O)c1cc(-c2ccc(Br)s2)nc2ccccc12)CC(C)C -4.17%, CCOC(=O)c1scc(-c2ccccc2)c1S(=O)(=O)Nc1ccc(N(C)C)cc1 -44.7%, COc1ccc(CCNC(=O)C2(c3cccs3)CCOCC2)cc1 1.58%, O=C(Nc1nonc1-c1ccc(Cl)cc1)c1ccccc1F 4.1%, Cc1cccc(CCNC(=O)C2CCC(CNS(=O)(=O)c3ccccc3)CC2)c1 (stereo unspecified) -8.71%, CCCC(CCC)C(=O)Nc1cccc(-c2nc3cccnc3s2)c1C -27.2%, COc1cccc(-c2nc(CS(=O)(=O)CC(=O)NCCc3ccc(OC)cc3OC)c(C)o2)c1 -19.9%, Cc1nn2c(C)c(C(=O)N3CCN(c4ccccc4F)CC3)cnc2c1-c1ccc(F)cc1 -2.88%, Cc1nnc(SCc2cc(=O)n3cccc(C)c3n2)s1 19.4%, CCOc1cc(C(=O)Nc2ccc3nc(Nc4cccc(Cl)c4)cc(C)c3c2)cc(OCC)c1OCC -13.5%, COCCCNC(=O)c1ccc(Cn2c(=O)c3ccccc3n(CC(=O)Nc3c(C)cccc3C)c2=O)cc1 -1.71%, CCCCCCNc1nc2c(c(=O)n(C)c(=O)n2C)n1Cc1cccc(C)c1 -37.5%, N#Cc1ccccc1Cn1c(=O)n(CCCC(=O)NCc2ccccc2Cl)c(=O)c2ccccc21 -2.93%, O=C(Nc1ccc(F)c(Cl)c1)C1CCN(C(=O)c2ccc(F)cc2)CC1 7.38%, CNS(=O)(=O)Cc1ccc2[nH]cc(CCN(C)C)c2c1 -6.16%, COc1ccc(Cl)cc1NC(=O)CSC1=Nc2ccccc2C2=NC(CCC(=O)NCc3ccc(F)cc3)C(=O)N12 (stereo unspecified) 0.545%, CCOC(=O)c1ccc(NC(=O)c2cnn(-c3ccc(C)cc3C)c2C2CCN(C(=O)OC(C)(C)C)CC2)cc1 -2.44%, CCOC(=O)c1c(NC(=O)CCCOc2ccc(Cl)cc2)sc2c1CCC2 -25.7%, COc1ccc(CNC(=O)c2ccc(NC(=O)N3CCSc4ncccc43)cc2)cc1OC -11.9%, COc1ccc(-c2oc3ncn4nc(COc5ccc(C)cc5)nc4c3c2-c2ccc(OC)cc2)cc1 -19.2%, COc1cccc(CN(C(=O)c2ccc(C(C)(C)C)cc2)C2CCS(=O)(=O)C2)c1 (stereo unspecified) -21.3%, O=C(NCCc1csc2nc(-c3ccccc3F)nn12)c1ccccc1C(F)(F)F -11.6%, CCOC(=O)Cn1c(=O)oc2cc(S(=O)(=O)N3CCN(c4ccccc4OC)CC3)ccc21 -15.6%, CCCOc1ccc(C(=O)Nc2ccc3nn(-c4ccc(OC)c(Cl)c4)nc3c2)cc1 -11.2%, CCOc1ccc(-c2nnc(SCC(=O)Nc3cc(F)ccc3F)o2)cc1 -15.2%, COCCCNC(=O)c1ccc(Cn2c(=O)c3ccccc3n(Cc3ccccc3C)c2=O)cc1 -14.5%, COc1cccc2c1Oc1nc(-c3ccccc3)nc(SCC(=O)Nc3ccccc3)c1C2 -3.96%, O=C(C1CCCN(S(=O)(=O)c2cccc3nonc23)C1)N1CCN(c2ccccc2Cl)CC1 (stereo unspecified) -3.15%, Nc1nonc1-c1nc2ccccc2n1Cc1c(Cl)cccc1Cl -4.89%, COc1ccc(N(CC(=O)NCCc2ccccc2)S(=O)(=O)c2ccc(OC)c(OC)c2)cc1 -7.71%, COc1ccc(CCNC(=O)c2ccc3nc(Cc4ccccc4)oc3c2)cc1OC -22.2%, COc1ccc(NC(=O)c2cnn(-c3ccc(F)cc3F)c2C2CCN(C(=O)OC(C)(C)C)CC2)cc1Cl 3.64%, Cc1cc(O)c(C(c2ccc(Cl)cc2)N2CCN(c3ccccc3)CC2)c(=O)n1Cc1ccco1 (stereo unspecified) -15.7%, Fc1ccc(-c2cn3cc(Cc4ccccc4Cl)sc3n2)cc1 -0.951%, Cc1cc2ccccc2n1CCNC(=O)c1ccc(F)cc1 -8.78%, CCN1C(=O)C2(c3ccccc31)c1c(oc3ccc(C)cc3c1=O)C(=O)N2CCCOC(C)C (stereo unspecified) -10.7%, CC1=C(c2ccc(C)cc2)S(=O)(=O)N(Cc2ccc(C(=O)Nc3ccccc3C)cc2)C1=O -10.8%, Cc1ccc(CCNC(=O)c2ccc(CS(=O)(=O)c3ccc(Cl)cc3)o2)cc1 5.47%, COCCNC(=O)CCCN1C(=O)CCn2nc(-c3cccn3C)cc21 -10.9%, Cc1ccc(NC(=O)/C(C#N)=C/c2cc(C)n(-c3ccc(Br)cc3)c2C)cc1C -17.9%, CCOc1ccccc1NC(=O)n1ncc2cc(Cl)ccc21 -7.99%, COc1ccc(CCn2c(=O)[nH]c3cc(C(=O)N4CCN(c5ccccc5)CC4)ccc3c2=O)cc1OC -18.2%, Cc1oc(-c2ccc(C(=O)NC(C)c3ccccc3)cc2)nc1CS(=O)(=O)c1ccccc1 (stereo unspecified) -8.47%, O=C(c1ccccc1F)N1CCC(c2nc3c(nnn3Cc3cccc(F)c3)c(=O)[nH]2)CC1 -18.5%, COC(=O)c1ccccc1NC(=O)CCCN1C(=O)C(c2ccccc2)Oc2cccnc21 (stereo unspecified) -12.5%, COc1ccc(NC(=O)Cn2c(=O)oc3cc(S(=O)(=O)N4CCCCC4C)ccc32)cc1 (stereo unspecified) -9.49%, COc1ccc(C)cc1NS(=O)(=O)c1c(C)nc2sc(C)cn2c1=O 2.38%, CCOc1ccccc1NC(=O)CSc1ccc2nnc(CCNS(=O)(=O)c3ccccc3)n2n1 1.11%, Brc1ccc(-c2noc(-c3ccccc3)n2)o1 10.7%, COCCNC(=O)CCCn1c(=O)[nH]c2ccsc2c1=O -6.99%, COc1cc(OC)c(NC(=O)c2cc(C(C)=O)n3ccccc23)cc1Cl -18%, COc1ccc(OCC(=O)N(Cc2cccc(OC)c2)C2CCS(=O)(=O)C2)cc1 (stereo unspecified) -11.4%, CC(=O)Nc1ccc(NS(=O)(=O)c2cc(Br)cc3c2N(C(=O)C2CC2)CC3)cc1 -8.57%
